Data: PubChem BioAssay AID602310 (National Center for Advancing Translational Sciences (NCATS), 2012)
Hit rate of the full screen: of about 410,000 compounds, about 310 (0.076%) were called active. The shares of active, inactive and inconclusive entries below differ from those in the screen. Calls come from the whole dose curve; as a rule, active = well fitted curve in the direction sought with a large enough effect; inconclusive = small, poorly fitted or top-dose-only effect; inactive = flat fitted curve, though single readings scatter. A potency beside an inconclusive call is a rough fit, not a confirmed value.

target: DNA dC->dU-editing enzyme APOBEC-3G (Homo sapiens) (UniProt Q9HC16); experiment: qHTS for Inhibitors of Vif-A3G Interactions: qHTS; conditions: HeLa A3G-eYFP + Vif (tagged APOBEC3G with the HIV-1 protein that degrades it), YFP fluorescence, overnight; series mostly up to 46.1 µM; activity, negative = active: at the top concentration; note: nearly all actives have a fitted effect of over 60% in size;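 for activity, negative = active: hits raise eYFP signal because A3G escapes Vif-driven loss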
In short: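 Read-out is eYFP fluorescence (Ex 488/Em 500-530) from Vif-expressing HeLa A3G-eYFP cells; more signal means A3G escaped Vif-mediated degradation. Cells plated overnight, compound pinned in, incubated overnight at 37 deg C.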
% is set by controls: 0 for no effect and ±100 for the full control effect; potency is the fitted concentration of half-maximal effect; tags give direction and shape of the fitted curve.

UniProt Q9HC16, sequence (Q9HC16 whole entry, looked up): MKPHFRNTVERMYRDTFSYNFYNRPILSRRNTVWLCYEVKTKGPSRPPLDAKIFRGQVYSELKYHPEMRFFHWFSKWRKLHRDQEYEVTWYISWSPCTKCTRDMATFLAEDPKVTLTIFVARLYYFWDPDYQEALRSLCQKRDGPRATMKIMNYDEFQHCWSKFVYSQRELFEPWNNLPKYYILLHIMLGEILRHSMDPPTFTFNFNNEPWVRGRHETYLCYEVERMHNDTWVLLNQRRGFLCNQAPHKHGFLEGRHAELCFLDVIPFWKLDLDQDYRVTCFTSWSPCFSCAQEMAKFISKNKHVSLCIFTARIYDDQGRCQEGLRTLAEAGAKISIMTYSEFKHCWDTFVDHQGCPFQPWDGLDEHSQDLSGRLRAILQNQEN

Row | SMILES | Potency | activity, negative = active
1 | CC(C)n1cc(NC(=O)c2cc(-c3ccccc3)on2)cn1 | inconclusive: 7.08 µM [inhibitor, full curve, poor fit] | –
2 | CC1=CC(=NOS(=O)(=O)c2ccc(C)cc2)CC(C)(C)C1 | – | inactive: -0.341%
3 | NC(=O)COc1ccc(C(=O)/C=C2/C(=O)Nc3ccccc32)cc1 | inconclusive: 35.5 µM [inhibitor, partial curve, poor fit] | –
4 | O=c1cc(N2CCCCC2)c(-c2ccccc2)nn1Cc1ccc(Cl)cc1Cl | – | inactive: -8.98%
5 | O=C(OCCC12CC3CC(CC(C3)C1)C2)c1ccc(NCc2cc(O)ccc2O)cc1 | inconclusive: 7.08 µM [inhibitor, partial curve, poor fit] | –
6 | COc1ccc(S(=O)(=O)N(C(=O)c2ccco2)c2cc3sc(=O)oc3c3ccccc23)cc1 | inconclusive: 20 µM [inhibitor, single point] | –
7 | Cc1ccc(S(=O)(=O)N2CCOCC2)cc1C(=O)N(C)CCOc1ccc(Cl)cc1 | – | inactive: 0.0527%
8 | CCOC(=O)c1c(C)[nH]c(C(=O)CN2C(=O)NC3(CCCC3)C2=O)c1C | – | inactive: -3.57%
9 | CC(=O)Nc1nonc1-c1nc2ccccc2n1Cc1ccccc1 | inconclusive: 3.16 µM [inhibitor, full curve] | –
10 | CCCOc1ccccc1C1CC(=O)Nc2cc3c(cc21)OCCO3 (configuration not stated) | inconclusive: 0.631 µM [inhibitor, full curve, poor fit] | –
11 | O=C(CCn1cnc(-c2ccccc2)c1-c1ccccc1)N/N=C/c1ccccc1O | inconclusive: 3.16 µM [inhibitor, partial curve, poor fit] | –
12 | O=S(=O)(c1ccc(Cl)c(Cl)c1)c1snnc1-c1ccccc1 | inconclusive: 2.82 µM [inhibitor, full curve] | –
13 | CCC1CCc2c(sc(NC(=O)C3c4ccccc4Oc4ccccc43)c2C#N)C1 (configuration not stated) | inconclusive: 11.2 µM [inhibitor, single point] | –
14 | O=C(Cn1cnc2c(cnn2-c2ccc(F)cc2)c1=O)NCc1ccco1 | inconclusive: 11.2 µM [inhibitor, partial curve, poor fit] | –
15 | COc1ccc(-c2cc(C(=O)N3CCN(c4ccccc4)CC3)c3ccccc3n2)cc1 | inconclusive: 1.58 µM [inhibitor, partial curve, poor fit] | –
16 | COCCNC(=O)CSc1nc2scc(-c3ccccc3)c2c(=O)[nH]1 | inconclusive: 28.2 µM [inhibitor, single point] | –
17 | O=C(Nc1ccc(Oc2cccnc2)cc1)C1CCCCN1Cc1ccc(CO)o1 (configuration not stated) | inconclusive: 35.5 µM [inhibitor, partial curve, poor fit] | –
18 | Cc1ccc2nsnc2c1NC(=O)c1ccc([N+](=O)[O-])o1 | inconclusive: 15.8 µM [inhibitor, single point] | –
19 | CCCCC(O)(CCCC)C(=O)N/N=C(\C)c1ccc(Cl)cc1 | – | inactive: -1.64%
20 | O=Nc1[nH]c(=O)c(/C=C(\O)c2ccccc2)nc1NO | inconclusive: 17.8 µM [inhibitor, single point] | –
21 | C=Cc1ccc(Cn2c(=O)n(CC3CCC(C(=O)NC(C)C)CC3)c(=O)c3sccc32)cc1 (configuration not stated) | inconclusive: 35.5 µM [inhibitor, single point] | –
22 | CCOC(=O)c1nc2c(=O)n(C)c(=O)n(C)c2n(C)c1=O | – | inactive: 0.281%
23 | Cc1ccccc1OCC(=O)N/N=C/c1ccc2c(c1)OCCO2 | inconclusive: 22.4 µM [inhibitor, single point] | –

Row | SMILES | Potency | activity, negative = active
24 | Cc1ccc(NC(=O)Cn2c(=O)ccc3cc(S(=O)(=O)N4CCCC4)ccc32)cc1N(C)C | – | inactive: -19.4%
25 | Cc1ccc(NC(=O)C2CCCN(S(=O)(=O)c3ccc4c(c3)CCCC(=O)N4)C2)cc1Cl (configuration not stated) | – | inactive: 3.73%
26 | Cc1ccc(OCC(=O)NC(=S)Nc2cccc(NC(=O)c3ccccc3)c2)cc1 | – | inactive: 0.451%
27 | COc1cccc(CNc2ccccc2O)c1OCc1ccccc1F | inconclusive: 35.5 µM [inhibitor, single point] | –
28 | CC(=O)Nc1cccc(-c2ccnc3c2CC(C(=O)NCc2ccc(F)c(F)c2)O3)c1 (configuration not stated) | inconclusive: 7.94 µM [inhibitor, partial curve] | –
29 | O=C(Cn1c(-c2ccccc2)c[n+]2ccsc12)c1ccccc1 | – | inactive: 2.83%
30 | Fc1ccc(C2=CC(c3ccc(Br)o3)n3ncnc3N2)cc1 (configuration not stated) | inconclusive: 17.8 µM [inhibitor, single point] | –
31 | Cc1cc(C)c(C#N)c(SCc2nnc(-c3ccccc3[N+](=O)[O-])o2)n1 | – | inactive: -3.57%
32 | Cc1cccc(-n2cnc3cc(C(=O)NC4CCCCCC4)ccc32)c1 | – | inactive: -21.8%
33 | COc1ccc(N(C)C(=O)Cc2c(C(=O)O)[nH]c3ccccc23)c(OC)c1 | inconclusive: 25.1 µM [inhibitor, single point] | –
34 | CCn1nnc2cc(C(=O)Nc3cccc(C)c3C)ccc21 | inconclusive: 15.8 µM [inhibitor, single point] | –
35 | O=C(CCS(=O)(=O)c1ccccc1)Nc1nnc(C(F)(F)F)s1 | inconclusive: 15.8 µM [inhibitor, single point] | –
36 | CC(=O)c1sc(NC(=O)CCS(=O)(=O)c2ccc(F)cc2)nc1C | inconclusive: 7.94 µM [inhibitor, partial curve] | –
37 | O=C(N/N=C/C=C\c1ccccc1[N+](=O)[O-])c1cc(-c2ccc3ccccc3c2)n[nH]1 | inconclusive: 11.2 µM [inhibitor, partial curve, poor fit] | –
38 | CC1(C(=O)NCc2ccccc2)Cc2c(-c3ccccc3)ccnc2O1 (configuration not stated) | inconclusive: 1.26 µM [inhibitor, full curve, poor fit] | –
39 | CCOC(=O)C1=CC[C@@H](c2ccccc2)N(S(=O)(=O)c2ccc(C)cc2)[C@H]1C#N | inconclusive: 31.6 µM [inhibitor, single point] | –
40 | Cc1cccc(N2CCN(C(=O)c3ccc4c(c3)NC(=O)C(CSCc3cccc(F)c3)N4)CC2C)c1 (configuration not stated) | inconclusive: 15.8 µM [inhibitor, single point] | –
41 | CC/C(=N\NC(=O)c1cc(C)nc2ccccc12)c1ccc(C)s1 | inconclusive: 3.55 µM [inhibitor, full curve, poor fit] | –
42 | O=C(N/N=C/c1ccccn1)c1cc(-c2ccc3ccccc3c2)n[nH]1 | inconclusive: 35.5 µM [inhibitor, single point] | –
43 | COc1ccc(CN2C(=O)C(C)Nc3ncnc(N4CCOCC4)c32)cc1 (configuration not stated) | inconclusive: 15.8 µM [inhibitor, single point] | –
44 | Cc1ccc(CNC(=O)c2nc(S(=O)(=O)Cc3ccc(C)cc3)ncc2Cl)cc1 | inconclusive: 11.2 µM [inhibitor, partial curve, poor fit] | –
45 | COc1cc(NC(=O)CCc2c(C)nc3c4c(C)cc(C)nc4nn3c2C)cc(OC)c1 | inconclusive: 6.31 µM [inhibitor, single point] | –
46 | COc1cc(C(=O)NCC(c2ccccc2)N(C)C)ccc1OCc1c(C)noc1C (configuration not stated) | inconclusive: 22.4 µM [inhibitor, single point] | –

Row | SMILES | Potency | activity, negative = active
47 | COc1ccc(OC)c(S(=O)(=O)ON2C(=O)c3ccccc3C2=O)c1 | inconclusive: 15.8 µM [inhibitor, single point] | –
48 | CCCCOc1ccc(CSC(CC(=O)O)C(=O)O)cc1 (configuration not stated) | – | inactive: 1.58%
49 | C=CCNc1nc(NCCCN2CCCC2=O)c2sc(-c3ccccc3)cc2n1 | inconclusive: 35.5 µM [inhibitor, partial curve, poor fit] | –
50 | COc1ccccc1-c1cc(C(=O)NN)[nH]n1 | inconclusive: 11.2 µM [inhibitor, partial curve] | –
51 | O=[N+]([O-])c1ccccc1-c1cc(-c2ccccc2O)n[nH]1 | inconclusive: 35.5 µM [inhibitor, single point] | –
52 | CC1(C)CC(=Cc2ccccc2[N+](=O)[O-])C(=O)c2ccccc21 | – | inactive: 1.14%
53 | COc1cc(C(=O)NNC(=S)NC(=O)c2ccc3c(c2)OCO3)cc(OC)c1OC | inconclusive: 25.1 µM [inhibitor, single point] | –
54 | COC(=O)c1ccc(Oc2cc(C)nc(SC)n2)cc1 | inconclusive: 3.16 µM [inhibitor, full curve] | –
55 | Cc1ccc(Sc2cnc(N)nc2C)cc1 | – | inactive: -2.2%
56 | COc1ccccc1NC(=O)Nc1nc(CC(=O)NCc2ccccn2)cs1 | – | inactive: -3.81%
57 | CCn1c(/C=C2\C(=O)Nc3ccccc32)nc2ccccc2c1=O | inconclusive: 35.5 µM [inhibitor, single point] | –
58 | Oc1ccc(NCc2ccccc2OCc2ccc(Cl)cc2)cc1 | inconclusive: 12.6 µM [inhibitor, single point] | –
59 | O=C(O)CSCc1cn2cc(Cl)ccc2n1 | – | inactive: 0.404%
60 | N#Cc1c(-c2ccc(F)cc2)c(-c2ccc(F)cc2)nn(CCO)c1=O | inconclusive: 8.91 µM [inhibitor, partial curve, poor fit] | –
61 | Cc1ccc(NS(=O)(=O)c2cc([N+](=O)[O-])ccc2N/N=C/c2sc(N3CCOCC3)nc2-c2ccccc2)c(C)c1 | inconclusive: 20 µM [inhibitor, partial curve, poor fit] | –
62 | Fc1ccc(NC(=S)NCCc2ccccc2)c(F)c1F | inconclusive: 28.2 µM [inhibitor, single point] | –
63 | O=C(Nc1ccc(Cl)cn1)c1cccc(S(=O)(=O)N2CCCCCC2)c1 | active: 20 µM | –
64 | Cc1nc(C)c(-c2csc(Nc3ccccn3)n2)s1 | – | inactive: 3.03%
65 | CCCCCCCCCCOC(=O)Cn1c(COc2ccc(OC)cc2)[n+](C)c2ccccc21 | inactive | –
66 | CCOc1ccc(Br)cc1C(=O)Nc1ccc(C(=O)NCC(C)C)cc1 | inconclusive: 5.01 µM [inhibitor, single point] | –
67 | S=c1[nH]nc(NCCCN2CCOCC2)s1 | – | inactive: 3.08%
